Experimental data as given in paper PMC7819943, “Rice protein-binding microarrays: a tool to detect cis-acting elements near promoter regions in rice”.
The list shows a part of the results.

Biological target: T1, OsWOX13 (Oryza sativa, UniProt Q5QMM3 1-267)
T1 sequence: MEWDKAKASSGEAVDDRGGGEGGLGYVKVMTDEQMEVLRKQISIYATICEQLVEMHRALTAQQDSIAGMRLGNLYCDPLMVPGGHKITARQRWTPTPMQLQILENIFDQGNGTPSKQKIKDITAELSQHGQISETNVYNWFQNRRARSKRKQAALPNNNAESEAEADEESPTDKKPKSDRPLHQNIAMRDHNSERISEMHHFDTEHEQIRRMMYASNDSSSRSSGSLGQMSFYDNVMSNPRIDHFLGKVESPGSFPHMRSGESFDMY
Assay: protein-binding microarray (RPBM); PBS, 2% BSA, 51.3 ng/ul salmon testes DNA, 50 uM zinc acetate, 200 nM TF, 25 C, 1 h; high values mean tight binding
Conditions: protein: recombinant; tags: N-terminal polyhistidine and DsRed monomer fusion (pET32a); label: CyDye5-dUTP incorporated in the synthesized complementary strand; 3' TTTTT single-stranded linker to array surface; dsDNA, one strand shown
Procedure, shortened: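 For the binding signal, per-feature fluorescence intensity was read in arbitrary units on an Axon 4000B scanner. Before scanning, a 2% BSA-blocked custom Agilent array made double-stranded with Cy5-dUTP was washed after 1 h at 25 °C with 200 nM protein and 50 µM zinc acetate. The proteins were Ni–NTA-purified transcription factors with N-terminal polyhistidine and DsRed fusions, expressed in E. coli BL21-CodonPlus.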

“GATTCAGTGATAGCACTGATTGGTCTGGGTGATATGGCCTCGGAGTCACCTAGTGCAG” was tested. Which binding signal did it give?
Its binding signal is 28600 fluorescence intensity (a.u.).

“CCAGATTAATCCTAACCTAAATAAATACACCCAAACCCTACGGAGTCACCTAGTGCAG” was tested. Which binding signal did it give?
Its binding signal is 4040 fluorescence intensity (a.u.).

With “ATATCTTTATTGTAATCAATTTTCAACGACGACTAGTTCTCGGAGTCACCTAGTGCAG” as the sequence, how does the binding signal read?
Its binding signal is 3950 fluorescence intensity (a.u.).

How did the binding signal turn out when “CAGATTTGATTTTCACAGCATACCAGCTCATTATCTTGATCGGAGTCACCTAGTGCAG” was run?
Its binding signal is 23100 fluorescence intensity (a.u.).

With “AAGTTAAATTTAGAAGTTGAAACTCTACCAAACATACCCTCGGAGTCACCTAGTGCAG” as the sequence, how does the binding signal read?
Its binding signal is 5110 fluorescence intensity (a.u.).

Which binding signal does the source give for “GATGATGTGACTGAAAAGTTGTGTGTGTATAACAGATTGACGGAGTCACCTAGTGCAG” here?
Its binding signal is 12500 fluorescence intensity (a.u.).

“TTTAATTTAACACATATAAATTACTACATCCGTTCTAGAACGGAGTCACCTAGTGCAG” was tested. Which binding signal did it give?
The binding signal was 4640 fluorescence intensity (a.u.).

With “CAAACTTTATATAGTCCAATCAAATTCAGATGGAGAAATGCGGAGTCACCTAGTGCAG” as the sequence, how does the binding signal read?
The binding signal was 3600 fluorescence intensity (a.u.).

“GCGGTGGCGGTTGGGGTGGCGAGTGGGGAGGAGGAGGCGGCGGAGTCACCTAGTGCAG” was tested. Which binding signal did it give?
Its binding signal is 7370 fluorescence intensity (a.u.).

For “CATCATTAATTTCTGTAGCTAGGCCCATATAATTTGTGCACGGAGTCACCTAGTGCAG”, which binding signal is on record?
The binding signal was 9910 fluorescence intensity (a.u.).

“TAATTTATACTGTGATTATAATATATTTACAACTGATAAACGGAGTCACCTAGTGCAG” was tested. Which binding signal did it give?
The binding signal was 5940 fluorescence intensity (a.u.).

For “AGATGCTGCATGGTTGATTGGTTTCAAGTAATTTCATGGGCGGAGTCACCTAGTGCAG”, which binding signal is on record?
Its binding signal is 7340 fluorescence intensity (a.u.).

Which binding signal does the source give for “TTTAGACAGATGGGCTGAACTGATCTCGCGGGCTGGGCTGCGGAGTCACCTAGTGCAG” here?
The binding signal was 18100 fluorescence intensity (a.u.).

“GTTAATTAGATCATGATAAAGATTAATGTATAGATCGAGGCGGAGTCACCTAGTGCAG” was tested. Which binding signal did it give?
Its binding signal is 62000 fluorescence intensity (a.u.).

For “TATGGTAGATTATTTAACTATATGGTAGATTATACTGTAGCGGAGTCACCTAGTGCAG”, which binding signal is on record?
The binding signal was 4370 fluorescence intensity (a.u.).

With “TCAGATTGAACGACCAATACTATATGCCAATTGAATGAGCCGGAGTCACCTAGTGCAG” as the sequence, how does the binding signal read?
Its binding signal is 30600 fluorescence intensity (a.u.).

For “TGCTGAGTTAGCCAGATAGATTGGGTCAACGAGTCATGTTCGGAGTCACCTAGTGCAG”, which binding signal is on record?
Its binding signal is 3520 fluorescence intensity (a.u.).

“ATATATTTATCATCAATTCCCGCTGTCACTAGCTAGAACGCGGAGTCACCTAGTGCAG” was tested. Which binding signal did it give?
Its binding signal is 3950 fluorescence intensity (a.u.).

Which binding signal does the source give for “AAACTCCAATTATATTAAATTTGGACTCCTTCCAAATTCGCGGAGTCACCTAGTGCAG” here?
Its binding signal is 14400 fluorescence intensity (a.u.).

“ATAACTAATCATTGAGAAAATATATGGTCGAAGATAATGCCGGAGTCACCTAGTGCAG” was tested. Which binding signal did it give?
Its binding signal is 17200 fluorescence intensity (a.u.).

How did the binding signal turn out when “CTTCCAAATTGATTCCCTATTAGCCACAAATAATTCTTCACGGAGTCACCTAGTGCAG” was run?
The binding signal was 18700 fluorescence intensity (a.u.).

For “TTTGCAATTTTCTCTAAATTAAATAAGATGGTTCCTAGCCCGGAGTCACCTAGTGCAG”, which binding signal is on record?
Its binding signal is 4420 fluorescence intensity (a.u.).

Which binding signal does the source give for “TTTCCGGGATATAATTGGCACGTAAGCGCCACGTTAATGCCGGAGTCACCTAGTGCAG” here?
Its binding signal is 7100 fluorescence intensity (a.u.).

For “CGCCCCTGCTAATTGGACCAAGGTTCCTAAATCAGTGGTACGGAGTCACCTAGTGCAG”, which binding signal is on record?
Its binding signal is 13400 fluorescence intensity (a.u.).

“AAGCGTGCTAATTAAGTTGTGCAGTTAACTAGTGCTCCATCGGAGTCACCTAGTGCAG” was tested. Which binding signal did it give?
Its binding signal is 5260 fluorescence intensity (a.u.).

For “CATGATATTAACATATTGATATTTACATAATTTGTAGTGACGGAGTCACCTAGTGCAG”, which binding signal is on record?
Its binding signal is 14900 fluorescence intensity (a.u.).

For “ATTCTGTAATTTATTTTGTTATTAGACTATATTTAATATTCGGAGTCACCTAGTGCAG”, which binding signal is on record?
Its binding signal is 8530 fluorescence intensity (a.u.).

“TCCCAATTTGCCGTTACTGGATCAATAAGCTCACATATATCGGAGTCACCTAGTGCAG” was tested. Which binding signal did it give?
Its binding signal is 5210 fluorescence intensity (a.u.).

For “ATGGGAGTTTGTCCTAATTATTGTTTATAATTTTGATATCCGGAGTCACCTAGTGCAG”, which binding signal is on record?
Its binding signal is 5460 fluorescence intensity (a.u.).

“AAGCCCCAAACCTGATTGCTCTTGTCTAAAATCTACCCCACGGAGTCACCTAGTGCAG” was tested. Which binding signal did it give?
The binding signal was 4500 fluorescence intensity (a.u.).

Which binding signal does the source give for “ATATAACAAACCCCAAGTAATTAACTGCAGGACTACTGGACGGAGTCACCTAGTGCAG” here?
The binding signal was 4160 fluorescence intensity (a.u.).

With “ACCTCTAATTTATTAATCCAGTATACATAAGTTCAGTGGGCGGAGTCACCTAGTGCAG” as the sequence, how does the binding signal read?
The binding signal was 34500 fluorescence intensity (a.u.).

“TCCTCATCTGTCATTAGTCATGATCAAATTTTCTTTTCCACGGAGTCACCTAGTGCAG” was tested. Which binding signal did it give?
Its binding signal is 7890 fluorescence intensity (a.u.).

For “TTACGTAAAATGGATTCAATTAGGATTACCGCCAAACTTACGGAGTCACCTAGTGCAG”, which binding signal is on record?
Its binding signal is 7320 fluorescence intensity (a.u.).

“TAGAATCAATCATCATGCAACAACTCCACATGAGCCCATTCGGAGTCACCTAGTGCAG” was tested. Which binding signal did it give?
The binding signal was 10700 fluorescence intensity (a.u.).

Which binding signal does the source give for “TCTTATGTGCTAATTAACTTTGCTCGTTTGCTACTCTACTCGGAGTCACCTAGTGCAG” here?
Its binding signal is 7200 fluorescence intensity (a.u.).

For “AATAATTTCATACTATTGGGAGTTGGGACCTTATCTTGCACGGAGTCACCTAGTGCAG”, which binding signal is on record?
Its binding signal is 5340 fluorescence intensity (a.u.).

How did the binding signal turn out when “CCAAACAGGTAATCCAAGTTGGTGAGAGCGATATATATAGCGGAGTCACCTAGTGCAG” was run?
Its binding signal is 7210 fluorescence intensity (a.u.).

For “CTTGAGAGGCCAATCACATCCAATACCTTACCTTGCAGCCCGGAGTCACCTAGTGCAG”, which binding signal is on record?
The binding signal was 5200 fluorescence intensity (a.u.).

With “AAGGGAATTAATTGCATGTGACAAATACGCAAAGCAAAGCCGGAGTCACCTAGTGCAG” as the sequence, how does the binding signal read?
The binding signal was 26200 fluorescence intensity (a.u.).

Which binding signal does the source give for “ACTAATTTAATTTGAACCGACGCTTGAACAGGCTACTAGTCGGAGTCACCTAGTGCAG” here?
The binding signal was 48400 fluorescence intensity (a.u.).

For “GCTTCGTCAACCCAATTACAGGAATTCTTAAACTTAAAAGCGGAGTCACCTAGTGCAG”, which binding signal is on record?
Its binding signal is 6270 fluorescence intensity (a.u.).
